The whole screen tested about 110,000 compounds, of which about 230 (0.21%) showed an effect of 50% or more. The list shows a part of the results.
Biological target: DPAP1 (Plasmodium falciparum, UniProt Q8IIJ9)
Experiment: primary screen, percent inhibition; read by cleavage of a fluorogenic dipeptide substrate; higher = more effect of the substance
Set-up: species or system P. falciparum D10 trophozoite lysates; single well
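Note: 30 min substrate incubation versus DMSO and 10 µM JCP410 controls.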

Chain of DPAP1 (Q8IIJ9 whole entry, looked up): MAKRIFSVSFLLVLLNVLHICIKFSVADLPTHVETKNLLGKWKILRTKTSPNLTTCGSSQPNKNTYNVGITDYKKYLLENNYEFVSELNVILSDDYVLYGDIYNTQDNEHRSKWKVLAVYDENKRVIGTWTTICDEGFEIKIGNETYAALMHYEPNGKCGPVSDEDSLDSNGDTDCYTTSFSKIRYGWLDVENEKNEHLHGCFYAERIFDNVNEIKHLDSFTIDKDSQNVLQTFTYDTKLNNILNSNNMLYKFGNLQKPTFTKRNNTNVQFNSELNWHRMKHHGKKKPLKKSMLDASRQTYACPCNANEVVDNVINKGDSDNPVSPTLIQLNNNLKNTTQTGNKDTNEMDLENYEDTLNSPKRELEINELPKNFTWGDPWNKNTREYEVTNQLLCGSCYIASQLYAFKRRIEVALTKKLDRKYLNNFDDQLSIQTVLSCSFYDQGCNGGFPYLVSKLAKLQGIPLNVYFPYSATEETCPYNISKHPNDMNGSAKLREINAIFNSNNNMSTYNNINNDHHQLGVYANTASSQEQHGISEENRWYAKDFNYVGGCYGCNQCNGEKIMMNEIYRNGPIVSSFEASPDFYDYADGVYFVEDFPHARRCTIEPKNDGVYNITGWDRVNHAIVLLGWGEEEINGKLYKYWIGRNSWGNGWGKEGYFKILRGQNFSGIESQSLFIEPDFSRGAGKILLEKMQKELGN

| Compound | % Inhibition @ 10 uM [%] |
| --- | --- |
| Cc1cccc(NC(=O)Cn2ncc3c(=O)oc4ccccc4c32)n1 | -1.03 |
| Cc1ccc(Cc2cc(C)ncc2C)c(C)c1 | 6.29 |
| Oc1ccc(SCCCCN2CCCCC2)cc1 | -6.32 |
| O=C(c1ccco1)N1CCn2cccc2C1c1ccccc1 (stereo not drawn) | 4.61 |
| CCOCCCNC(=O)CS(=O)Cc1nc(-c2ccc(OC)c(OC)c2)oc1C (stereo not drawn) | -2.85 |
| O=C(Cn1cc(SCc2cccc(Cl)c2)c2ccccc21)N1CCCC1 | 0.292 |
| Cc1ccc(CCNC(=O)CS(=O)Cc2nc(-c3cccs3)oc2C)cc1 (stereo not drawn) | 1.55 |
| CCc1cc2c(cc(C(=O)OC)n2Cc2cc(=O)n3ccccc3n2)s1 | -5.03 |
| O=C1OC(c2ccccc2F)=N/C1=C\c1ccc2ccccc2c1 | 1.25 |
| COc1ccc(C)cc1NS(=O)(=O)c1ccc(OC)c(Cl)c1Cl | 0.727 |
| CCOC(=O)c1ccc2ncc(C(=O)OCC)c(NCCCOC(=O)c3cccs3)c2c1 | 1.52 |
| CC(=O)c1cccc(NC(=O)CN(Cc2ccc(Cl)cc2)S(=O)(=O)c2ccc(C)cc2)c1 | 0.795 |
| CC(/C=N/n1cnnc1)=C\c1ccccc1 | 6.23 |
| Cc1c(Cl)cccc1NS(=O)(=O)c1c(C(C)C)cc(C(C)C)cc1C(C)C | 5.08 |
| C=CCn1c(SCC(=O)O)nnc1-c1ccc(Cl)cc1Cl | 10.4 |
| CCOc1ccc(CCNC(=O)CCc2c(C)nc3nc(C)nn3c2C)cc1OCC | 2.93 |
| CN(C)CCN(C)C/C=C/c1ccccc1 | -6.62 |
| O=C(Nc1cc(Cl)cc(Cl)c1)Nc1cccc2ccccc12 | -2.18 |
| CCOC(=O)/C(C#N)=C/c1ccc(SC)cc1 | 11.6 |
| COc1ccc(CNC(=O)c2ccc(C3SCC(=O)N3CCc3ccccc3)cc2)cc1 (stereo not drawn) | -1.65 |
| COC(=O)C(Cc1ccccc1)NC(=O)c1ccc(Br)cc1 (stereo not drawn) | 4.63 |
| COc1cc(C(=O)N2CCc3ccccc32)cc(OC)c1OC | -1.76 |
| O=C(OCCn1cncn1)c1cc2ccccc2oc1=O | -3.58 |
| CC(C)(C)Oc1ncc(-c2ccccc2)c(OC(C)(C)C)n1 | -3.78 |
| CCN(CC)CCCOc1cccc(Cl)c1 | 0.0792 |
| Cc1ccc(C)n1-c1nnc(N2CCC(C(=O)N3CCOCC3)CC2)s1 | 2.76 |

| Compound | % Inhibition @ 10 uM [%] |
| --- | --- |
| Cc1ccc(NC(=O)C(C)Sc2nc(N)cc(N)n2)cc1 (stereo not drawn) | -2.11 |
| O=C(COc1ccc(C2CCCCC2)cc1)Nc1ccc(CN2CCOCC2)cc1 | -2.29 |
| CCC(C)(C)c1ccc(OCC(=O)Nc2ccccc2C(=O)O)cc1 | 1.79 |
| CC(C)C(C(=O)NC(=O)NC(c1ccccc1)c1ccccc1)N1C(=O)c2ccccc2C1=O (stereo not drawn) | -9.1 |
| COC(=O)c1nnn(-c2ccccc2)c1C(=O)OC | 1.85 |
| CC(C)n1cnc2c(=O)oc3ccccc3c21 | 1.38 |
| CCOc1ccc(C2CC(c3cc(OC)c(OC)c(OC)c3)n3nnnc3N2)cc1 (stereo not drawn) | 1.73 |
| O=c1oc(/C=C/c2ccco2)nc2sc3c(c12)CCCC3 | 3.76 |
| Cc1ccc(S(=O)(=O)N2CC=C(C(=O)NC(C)CCc3ccccc3)CC2)cc1 (stereo not drawn) | -0.406 |
| Cc1ccc(Cc2ccc(C(=O)Nc3ccc(S(=O)(=O)Nc4nccs4)cc3)o2)cc1 | 25.7 |
| O=C(Nc1ccc(Cl)cc1)N1CCN(c2ccc(Cl)cc2)CC1 | 3.57 |
| COc1ccc(S(=O)(=O)N(CC(=O)Nc2ccc(C)cc2C)c2ccccc2)cc1 | 3.66 |
| Cc1ccccc1OCc1nn2c(COc3ccccc3)nnc2s1 | 4.96 |
| Cn1cc(Cl)c(C(=O)Nc2cccc(S(=O)(=O)N3CCOCC3)c2)n1 | 0.471 |
| CN1CCN(c2ccc(Nc3ccnc4cc(Cl)ccc34)cc2)CC1 | -1.63 |
| OCCN1CCN(CC#CCC(O)(c2ccccc2)c2ccccc2)CC1 | 4.42 |
| CCSC1=C(C#N)C(=O)NC(/C=C/c2ccccc2)S1 (stereo not drawn) | 3.35 |
| COc1cccc(C2NC(=O)NC(C)=C2C(=O)OCCSC)c1OC (stereo not drawn) | 2.7 |
| O=C(O)Cc1nc2ccccc2[nH]1 | -1.72 |
| O=C1NC(=S)N(c2ccc(Cl)cc2Cl)C(=O)/C1=C/c1ccc(O)cc1 | -1.66 |
| Cc1ccccc1OCC(=O)Nc1cccc(Cl)c1C | 5.09 |
| CCOC(=O)c1c(C)oc2ncnc(N3CCC4(CC3)OCCO4)c12 | 1.75 |
| N=C1/C(=C/c2ccc(O)cc2)C(=O)N=C2SC(C(F)(F)F)=NN12 | 7.13 |
| CC1CCc2c(sc3ncn4nnnc4c23)C1 (stereo not drawn) | -1.6 |
| CC(C)(C)OC(=O)N1CCC(c2c(C(=O)N3CCOCC3)cnn2C(C)(C)C)CC1 | 1.06 |

Source: PMC6919601, “Identification of Plasmodium dipeptidyl aminopeptidase allosteric inhibitors by high throughput screening” (PLoS ONE, 2019)
